Where a chain is given by its changes, count along the chain named. Some of the results follow.
B1: 63823771_63823891_5435_3pUTR_ENSMUSG00000027823_ENSMUST00000029405|mouse|control|control (ssRNA)
RNA: GGGAGUUCUACAGUCCGACGAUCCAGAAAACCUGAAUCCAGCUCCUGCUCUGCCAAUAGUUAGCAGUUAUGAAUACUUAUCUGUUGUCAAAACAGAAAUAUAUUCUAAUAGCUCUUCCAAAAAUGCAAAGUAAAGUGAAAGUCCAACAGAGGAUUGAGCAUCA
B2: 28789440_28791678_4005_3pUTR_ENSG00000108582_ENST00000225719|human|control|control (ssRNA)
RNA: GGGAGUUCUACAGUCCGACGAUCUGUCUAUUAGACUUGAUUGAGCAGAUGCACCAAAUAAUGCAAGCUGUUAGGAUCAAUGCCGACAUAGUAGCACCUGAUACAGUUACCACAAGCUCCCUUGGCAAACCAAAUAUCCGGUUACAACAGAGGAUUGAGCAUCA
B3: 106417281_106417401_1343_ncRNA_ENSMUSG00000055407_ENSMUST00000127492|mouse|control|control (ssRNA)
RNA: GGGAGUUCUACAGUCCGACGAUCCAUCCAUGCUGGCCCUGCCUUCCUGCGUGUGUCACGCUGAUCUGCACCGGACGCCUUUCCAGCUGCAGGACCACCCUCCUGGGUCUGGGAUUGGGCUGGGGGCAGAGGCUUCUCUUCGUGCAACAGAGGAUUGAGCAUCA
B4: chr2:158287933:158287934:+_ENSMUSG00000027652_ENSMUST00000141497|mus_hu|motif|central (ssRNA)
RNA: GGGAGUUCUACAGUCCGACGAUCAAGAGGUUGUUCCAGCAUUGCCAGGAUGACACUGUUAUCCAAGACAAAGUACCGGAAACGGUGCUUGUUUAUGGUUGGCAGCCUGGAGUAUUUAAUCAAAGUGGUCUCAUUCACAAGACUCAACAGAGGAUUGAGCAUCA
B5: chr2:181041410:181041411:-_ENSMUSG00000027581_ENSMUST00000103045|mus_mus|FALSE|FALSE (ssRNA)
RNA: GGGAGUUCUACAGUCCGACGAUCAGCUGAGGGGUACAGGGGAGCAGAUAGGAGCAGGCACAAAAUUCGCAUCUAGACAGAAUUGAAAACAAAAACAAAACCCGAAAACGUUCUUGUCGCCGCUGGGUCCAAUACUCCUUAGCCCAACAGAGGAUUGAGCAUCA
B6: chr11:87793471:87793472:-_ENSMUSG00000020483_ENSMUST00000020775|mus_mus|mus_mus_mus_hu_False|58_78 (ssRNA)
RNA: GGGAGUUCUACAGUCCGACGAUCUGGACUUGAAAAUAAAAGAAUAAGCUGGAUCCCCCCACCCCUUACAUUGUCAACCCUAUGCGAGAGUUUUGAAGGCGACUCAUGAAAAUCAGCAGCUCAAACGGCAAUGACCACCCCACCCAACAGAGGAUUGAGCAUCA
B7: chr3:152122376:152122377:+_ENSMUSG00000039068_ENSMUST00000106100|mus_mus|FALSE|FALSE (ssRNA)
RNA: GGGAGUUCUACAGUCCGACGAUCAAACAAACAUAUCCACAUCGUUUAUUUCUCACAGUUCUCCCGACAAAUGAACAUUAUUCAAGAACAUACUGUAUACACAGAUAAGAAACAUACAAAAUGUUUUAAAUGAUGCACAACAAACAACAGAGGAUUGAGCAUCA
B8: chr5:128448638:128448639:+_ENSG00000066583_ENST00000173527|hu_mus|hu_hu_hu_mus_False|58_68 (ssRNA)
RNA: GGGAGUUCUACAGUCCGACGAUCGGCACUCGCCUUAAUUAGGUUCUGAAUUUCCUUGAACUUCGGGUGGUCCUUAUCAGCUACCAGCUGUAGGAGGACAGCCUCACUAGUGGUCACGAUGAUCCCAGUGCGGGCAAGACGCUCCAACAGAGGAUUGAGCAUCA
B9: chr3:148802587:148802588:-_ENSG00000071794_ENST00000310053|hu_mus|hu_hu_hu_mus_False|18_78 (ssRNA)
RNA: GGGAGUUCUACAGUCCGACGAUCUCCAACAACUUGUCCUCUCAUAGUUCCAAAUAAAACGGAAUCUUGCUCUUCAUCACUCGUUAGGAAGUCAUCUGGAGGAAUAAUGUCUUGGAAUUCAAAACGUGGCAAGAAAGUUGAGUACAACAGAGGAUUGAGCAUCA
B10: chr22:32879901:32879902:+_ENSG00000100225_ENST00000397426|hu_mus|hu_hu_hu_mus_False|48_108 (ssRNA)
RNA: GGGAGUUCUACAGUCCGACGAUCCUCUGCCAUAUGCAUGGCAUCCUGAAUUGACUCAGCUUCAACAUUUUGACUAGGCCCUUCCAUACUGUCGUCAGUCCAGGCAUCAAAUGGGGUGGCCUGUCCUUGGGAUGAAUCAGUCCCCAACAGAGGAUUGAGCAUCA
B11: chr1:220276048:220276049:+_ENSG00000067704_ENST00000302637|hu_hu|hu_hu_hu_mus_True|8_108 (ssRNA)
RNA: GGGAGUUCUACAGUCCGACGAUCGCAAACAGCUUCAUUGGCGGGAAUUGUCCAAGGCUGGGUGGUCCAAACUAAAACGCUAACAGGGGAUGAGGCAUCUGUAAGAGACUCCAACUUCGGAGGAGGUUUUAAGAGAGGGAAUCUCAACAGAGGAUUGAGCAUCA
B12: chr3:148802587:148802588:-_ENSG00000071794_ENST00000310053|hu_mus|hu_hu_hu_mus_False|8_68 (ssRNA)
RNA: B9 RNA with G60C, G61A, U67A, G68C, C69U, C124U, C129A
B13: chrX:98862621:98862622:+_ENSMUSG00000034160_ENSMUST00000044475|mus_hu|mus_mus_mus_hu_False|58_58 (ssRNA)
RNA: GGGAGUUCUACAGUCCGACGAUCCUGCAUCUCCUUUAGAGUGUUUCCCAUAUUAGAGUAGGCAUCAGCAAAGGUAGGACUAAUUCGAAUAGCCUCCUUAUAAUGCAUCAGAGCUUCCUGCAGUUUUCCCUGCUGCUGCAGUACCAACAGAGGAUUGAGCAUCA
B14: chr2:11404176:11404177:-_ENSMUSG00000026773_ENSMUST00000114846|mus_hu|FALSE|FALSE (ssRNA)
RNA: GGGAGUUCUACAGUCCGACGAUCCAGGAGGCAGCGCAUGACAGCCUGGUGGGAGAUGACGAGGACAUUGCCCUGACGUUCCAGCUCCAUGAUGACAGGCUCCAGCCGCUGCACCAGGUCCUGGUAUGACUCCCCACCAGGAUACAACAGAGGAUUGAGCAUCA

Biological target: T1, UNK ZnF1-3 (human, UniProt Q9C0B0 31-174)
T1 sequence: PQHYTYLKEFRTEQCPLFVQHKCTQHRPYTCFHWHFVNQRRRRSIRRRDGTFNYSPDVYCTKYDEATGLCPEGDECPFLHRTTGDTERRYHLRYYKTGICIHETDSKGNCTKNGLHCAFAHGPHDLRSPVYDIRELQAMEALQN
Test: nsRBNS (natural sequence RNA bind-n-seq); RBNS binding buffer (assumed for nsRBNS): 25 mM Tris pH 7.5, 150 mM KCl, 3 mM MgCl2, 0.01% Triton X-100, 500 ug/ml BSA, 20 U/ml SUPERase-In, 4 C; UNK is unkempt and MSI1 is Musashi-1; names of the RNAs are library labels; protein concentration not given here; high values mean tight binding

Row | Binder | binding signal
1 | B1 | 0.958 enrichment R
2 | B2 | 1.01 enrichment R
3 | B3 | 0.956 enrichment R
4 | B4 | 0.756 enrichment R
5 | B5 | 2.16 enrichment R
6 | B6 | 1.99 enrichment R
7 | B7 | 0.714 enrichment R
8 | B8 | 0.713 enrichment R
9 | B9 | 1.4 enrichment R
10 | B10 | 0.722 enrichment R
11 | B11 | 2.5 enrichment R
12 | B12 | 1.08 enrichment R
13 | B13 | 0.882 enrichment R
14 | B14 | 0.786 enrichment R

From paper PMC12136788
